Test results: the RNAGym collection of RNA variant scans (doi:10.1073/pnas.2313332121)
This sample is rich in variants without activity.

B1: TPR 5TU (parent)
chain: GGAUCUUCUCGAUCUAACAAAAAAGACAAAUCUGCCACAAAGCUUGAGAGCAUCUUCGGAUGCAGAGGCGGCAGCCUUCGGUGGCGCGAUAGCGCCAACGUUCUCAACUAUGACACGCAAAACGCGUGCUCCGUUGAAUGGAGUUUAUCAUG

Variants of: B1
Test: polymerase ribozyme fitness, log enrichment relative to wild type (log ratio); higher = more active; in vitro selection for triplet polymerase activity
Method in brief: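 One round of in vitro selection, in triplicate, was applied to PCR-built, transcribed mutant libraries of each subunit of a heterodimeric triplet polymerase ribozyme. The steps were annealing with a biotinylated primer, partner subunit and triplets, incubation frozen at −7 °C, gel excision of extended constructs, streptavidin-bead capture and RT-PCR. Fitness is the logarithm, base 2, of genotype enrichment over wild-type enrichment from inverse-variance-weighted replicate averages of Illumina-sequenced inputs and outputs, keeping genotypes with ≥10 input reads and ≥1 read per output.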

Variant | polymerase ribozyme fitness (log ratio)
A20U A29U G71U G84A | ≤ -4.2
A20U A29U U53A C95U A147U U148G | ≤ -4.2
A20U A30C A89U G92A C116U U145G | ≤ -4.2
A20U A30C C72U A91G G92A U146C | ≤ -4.2
A20U A30C G86U G140U | ≤ -4.2
A20U A30U U61G A73G U78C A122U | ≤ -4.2
A20U A37C G58A A91G C93G A142C | ≤ -4.2
A20U A37C U56A G88A U102G A122C U144A | ≤ -4.2
A20U A39C C85U C95U U102G A142G | ≤ -4.2
A20U A39C G48A G94A | ≤ -4.2
A20U A39G C54G U61C C132A | ≤ -4.2
A20U A39G U102A A115G | ≤ -4.2
A20U A39U C51G A66C C93G U134A | ≤ -4.2
A20U A40C G50C G94C U104A C118U | ≤ -4.2
A20U A40C G80C C93U A110U | ≤ -4.2
A20U A40C G80U G83A C99U G133U A142G U145C | ≤ -4.2
A20U A40C G94A A115U A119C | -3.89
A20U A40G C63G G81C A113U A115C A138G | ≤ -4.2
A20U A40G G84U U148C | ≤ -4.2
A20U A40U G84A A119U G136U | ≤ -4.2
A20U A41C G48A C87G A113U G141U | ≤ -4.2

Variant | polymerase ribozyme fitness (log ratio)
A20U A41C G50A G141A | -4.03
A20U A41C U44G U61A A64C G88C U134A | ≤ -4.2
A20U A41G A49U A52C G86C C96G | ≤ -4.2
A20U A41U G48A A49G C96G A106G A107G U135G | ≤ -4.2
A20U A47C | -0.824
A20U A47G G50U C85G | -3.77
A20U A49C G50C G92U U146G C149U | ≤ -4.2
A20U A49C G58C C87U | ≤ -4.2
A20U A49U C51U C57A A89U G92C A98C U148C | ≤ -4.2
A20U A49U C57G C95U U102C A113C U148A | ≤ -4.2
A20U A49U C93G C103U | ≤ -4.2
A20U A52C C54U G88U A107U C116A | ≤ -4.2
A20U A52C C76G A91C G100C A115U U139G | ≤ -4.2
A20U A52G C54A G80U A110U | ≤ -4.2
A20U A60C C63G A73G C93A A119U A137G U139G | ≤ -4.2
A20U A60U G68C C76A C96A G100A U145A U151C | ≤ -4.2
A20U A66U C125G G133U | ≤ -4.2
A20U A89C U109C | ≤ -4.2
A20U A113C G133C | ≤ -4.2
A20U A113U | -3.74
A20U A122U U144G | -0.756

Variant | polymerase ribozyme fitness (log ratio)
A20U C27A A30U C76A C85U A110G G117U | ≤ -4.2
A20U C27G A28G G50A C93G G152U | ≤ -4.2
A20U C27G A30U A37U A60C C76A G88A G94A C99G | ≤ -4.2
A20U C27U A40U G62A U77C C79G C87U C123U | ≤ -4.2
A20U C27U A49C A64C U134A U135C A137U | ≤ -4.2
A20U C32A G50A C93G | ≤ -4.2
A20U C32G A39U A41C G70A C87U A122C G136C | ≤ -4.2
A20U C32G U44G U45C G86A U144G U148C A150U | ≤ -4.2
A20U C32U A49U U55G G65C G88A G128U | ≤ -4.2
A20U C35A G92U A110U | ≤ -4.2
A20U C35U C87U C99U G141C | ≤ -4.2
A20U C35U C95A A97G C99A C105U A138G | ≤ -4.2
A20U C35U U53A U82A C87U C93G C132U | ≤ -4.2
A20U C36A U61A C93U | ≤ -4.2
A20U C36G G70A | -4.1
A20U C36U A39C A97U | ≤ -4.2
A20U C38A G100U G124C G133U C149A | ≤ -4.2
A20U C38G A91G C99G A147C | ≤ -4.2
A20U C38G C57U G86A | -3.63
A20U C38U C75A C87G A107U C132U | ≤ -4.2
A20U C38U G100A G140U G143A | ≤ -4.2

Variant | polymerase ribozyme fitness (log ratio)
A20U C43U U53C C54U A89U A91C G92U | ≤ -4.2
A20U C51U U55G C57G A120C | -3.76
A20U C54A A66U U77C C116G C125A U148C | ≤ -4.2
A20U C54G | -2.64
A20U C54U G133U A138C | ≤ -4.2
A20U C57G A73G C96G G140U | ≤ -4.2
A20U C57U A60C A98G C116U G117U U134A | ≤ -4.2
A20U C57U G59U G62U C76U C96G A147G | ≤ -4.2
A20U C57U G68A C72U G92A | ≤ -4.2
A20U C75G C93U C95U A98G | ≤ -4.2
A20U C76A C93A U101C U104G G141C C149G G152C | ≤ -4.2
A20U C76U A97G C105U C123U U134A | ≤ -4.2
A20U C87A | ≤ -4.2
A20U C87G A91U | ≤ -4.2
A20U C93A C125G A138C | ≤ -4.2
A20U C93G C103A A113G C114G G140U | ≤ -4.2
A20U C96G | -0.585
A20U C96U A98G | -1.71
A20U C96U U101A U102A | ≤ -4.2
A20U C125A | -2.05
A20U G42C A64C G94C G126U | ≤ -4.2
